{"source": "the RNAGym collection of RNA variant scans (doi:10.7554/elife.90254)", "parents": {"B1": {"name": "LINE1-full (parent)", "chain": "UACGUAGGUGGUUUUCCCCUGAUAGUGCUAAGGGGGCCUGGAAGUUUGGACUGGGCAGAGCUCAACACAGCGUGGCAAAGUGGCUGUGGCUAGACUGCCUCUCUGGAUUCCUCGUCACUCAGCAGGGCAUCUCUGAGAGAAAUGCC"}}, "note": "Read counts are not given, so values of variants with three or more changes are uncertain.", "data": [{"variants_of": "B1", "experiment": "self-cleavage, relative activity (ratio to wild type); higher = more cleavage; in vitro, sequencing; the parent is a self-cleaving ribozyme", "values": [{"variant": "U5C U62C A141G", "self-cleavage": 0.11}, {"variant": "U5A A31G U62A A121G", "self-cleavage": 0.18}, {"variant": "U5C U39A U104A U112A A141G", "self-cleavage": 1.32}, {"variant": "G4A U81G U87C U96A U102A A136U", "self-cleavage": 0.32}, {"variant": "U5C G10A C37U A50G U73A U81C A92G", "self-cleavage": 0.35}, {"variant": "U5C U14C A50G", "self-cleavage": 0.85}, {"variant": "U5C U73A U115C U130C", "self-cleavage": 2.72}, {"variant": "U5C U108A U109A", "self-cleavage": 0.86}, {"variant": "G4A C118U U134C", "self-cleavage": 1.19}, {"variant": "G4A U23A A78G", "self-cleavage": 0.91}, {"variant": "A6G A24G C76U A79U U81A A94G U112C", "self-cleavage": 1.07}, {"variant": "G4A U12C U52C G89U C110U", "self-cleavage": 0.14}, {"variant": "A6G A30U A50G U132C", "self-cleavage": 1.31}, {"variant": "U5A C68U G126U C128U", "self-cleavage": 0.21}, {"variant": "U5C U13C A22G U47C C61U U62A U132A", "self-cleavage": 0.38}, {"variant": "U5A G21A A142G", "self-cleavage": 1.46}, {"variant": "G4A U39C U130C", "self-cleavage": 1.31}, {"variant": "G4U A92U U102C", "self-cleavage": 0.72}, {"variant": "G4A C113A A129U", "self-cleavage": 1.16}, {"variant": "U5C A77U U81A A138G", "self-cleavage": 1.64}, {"variant": "A6G C56G A67U A136G", "self-cleavage": 0.15}, {"variant": "A6G G35A G53A A64G U134C", "self-cleavage": 0.2}, {"variant": "A6G U12C A42G A140G A142G", "self-cleavage": 1.15}, {"variant": "U5C A43G A77G U85C U100C C111U A129U", "self-cleavage": 0}, {"variant": "U5A U87A G89U", "self-cleavage": 0.06}, {"variant": "A6G A31U A42G", "self-cleavage": 0}, {"variant": "A6G A42U C101U A136G", "self-cleavage": 0.78}, {"variant": "U5C G54A U115C", "self-cleavage": 1.08}, {"variant": "U5A A30U U73C", "self-cleavage": 1.21}, {"variant": "U5C C19U G72U A124G", "self-cleavage": 0.43}, {"variant": "A6C A50G U109C", "self-cleavage": 0.3}, {"variant": "U5G A67C U81A", "self-cleavage": 0.11}, {"variant": "U5C A43G U91C G106U", "self-cleavage": 0.38}, {"variant": "U5C A65G A142G", "self-cleavage": 0.11}, {"variant": "U5A U109A A129U", "self-cleavage": 1.15}, {"variant": "U5C U15C A22G A42G A121U A129G U130C U134A", "self-cleavage": 0}, {"variant": "U5A U81G U96C C133A", "self-cleavage": 0.07}, {"variant": "A6G A94G U100C U102A", "self-cleavage": 0}, {"variant": "A6G A24U A31G U91C A124G", "self-cleavage": 0}, {"variant": "U5C A24G U26C U91C", "self-cleavage": 2.3}, {"variant": "G4A U15C U112C U134C", "self-cleavage": 1.08}, {"variant": "U5C U108C A140G", "self-cleavage": 1.4}, {"variant": "G4A G10U C95U A129G", "self-cleavage": 0.14}, {"variant": "U5C A77G U81C", "self-cleavage": 0.37}, {"variant": "U5C U23A G75A U87C", "self-cleavage": 0.2}, {"variant": "U5A U26C U87A U134C", "self-cleavage": 0.18}, {"variant": "G4A U23A A43G", "self-cleavage": 1.11}, {"variant": "U5A A78G G105A U115C", "self-cleavage": 1.52}, {"variant": "U5C U13A U102C U109C", "self-cleavage": 1.2}, {"variant": "U5C G34A A141G", "self-cleavage": 1.5}, {"variant": "U5C C28U U47C", "self-cleavage": 0.49}, {"variant": "U5A G27A A142G", "self-cleavage": 0.75}, {"variant": "G4A U14C U15C C84U", "self-cleavage": 0.12}, {"variant": "A6G A42U U46C", "self-cleavage": 0.97}, {"variant": "A6G U9C U134A", "self-cleavage": 0.86}, {"variant": "A6G A42G A138G", "self-cleavage": 1.53}, {"variant": "U5C U14C A141G", "self-cleavage": 1.51}, {"variant": "U5C U14C U96C U108C U143C", "self-cleavage": 0.26}, {"variant": "U5C U47A A64G A107U", "self-cleavage": 0.27}, {"variant": "U5A U15A A24U A42U C51A U73A A141G", "self-cleavage": 0.55}, {"variant": "U5C U26C C90U", "self-cleavage": 0.21}, {"variant": "U5A U14C A30G U39A A129U U134C", "self-cleavage": 1.23}, {"variant": "U5C A6U A94U", "self-cleavage": 0.61}, {"variant": "U5C G32A A67G A77G A121U", "self-cleavage": 0.21}, {"variant": "G4A U102C U112C", "self-cleavage": 1.02}, {"variant": "U5C U26C U46C U81A", "self-cleavage": 1.56}, {"variant": "A6G U12C U81A U119C", "self-cleavage": 1.98}, {"variant": "G4A G34U C123U A138G", "self-cleavage": 1.06}, {"variant": "U5C A6U G41A U143A", "self-cleavage": 0.84}, {"variant": "A6G U9C U45A U109A A142G", "self-cleavage": 1.13}, {"variant": "G4C A43G U115A", "self-cleavage": 1.23}, {"variant": "A6G U12G A24G A79G", "self-cleavage": 0.74}, {"variant": "A6G G8C U46C A129G", "self-cleavage": 0.54}, {"variant": "U5C A6G A136G", "self-cleavage": 1.36}, {"variant": "U5C U9A U100C A141G A142G", "self-cleavage": 0.55}, {"variant": "U5C A92G U100C", "self-cleavage": 0}, {"variant": "A6G U13C U100C", "self-cleavage": 0.96}, {"variant": "U5C U81C A141G", "self-cleavage": 0.86}, {"variant": "U5C U46C A121C U132C", "self-cleavage": 0.84}, {"variant": "U5C U29A A78G U104C", "self-cleavage": 1.38}, {"variant": "A6G U12G U26C A140G", "self-cleavage": 1.5}, {"variant": "U5C U12C U39C A65U U87C U104A", "self-cleavage": 0}, {"variant": "A6G A65U A69G U132G", "self-cleavage": 0.42}]}]}
